# Test results taken from the supplement of paper PMC8728848.
# The list shows a part of the results.
# How the values were obtained:
# Experiment in all cases: glycan array binding signal (z-score within array); higher = stronger binding
# Details in all cases: glycan notation: IUPAC condensed, linker removed; mutation: W10H
# [1] = target: Gal(b1-4)GlcNAc(b1-3)Gal(b1-4)GlcNAc(b1-3)[Gal(b1-4)GlcNAc(b1-3)Gal(b1-4)GlcNAc(b1-6)]GalNAc
# Outline: (§1)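 Glycan array data came from 3228 arrays in the Consortium for Functional Glycomics database, and only arrays with an available protein sequence were kept. Glycan names were put into IUPAC-condensed notation, and columns mapping to the same glycan were averaged. The binding signal is a within-array Z-score, averaged across arrays of one protein sequence run at different concentrations or buffers and across linkers. A negative Z-score can be read as non-binding.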
# [2] = target: Gal(b1-4)GlcNAc(b1-3)Gal(b1-4)GlcNAc(b1-6)[Gal(b1-3)]GalNAc
# Outline: as §1
# [3] = target: Gal(b1-4)GlcNAc(b1-3)Gal(b1-4)[Fuc(a1-3)]GlcNAc(b1-3)Gal(b1-4)[Fuc(a1-3)]GlcNAc
# Outline: as §1
# [4] = target: Gal(b1-4)GlcNAc(b1-3)GalNAc
# Outline: as §1
# [5] = target: Gal(b1-4)GlcNAc(b1-3)[Fuc(a1-3)GlcNAc(b1-6)]Gal(b1-4)Glc
# Outline: as §1
# [6] = target: Gal(b1-4)GlcNAc(b1-3)[Gal(b1-4)GlcNAc(b1-6)]Gal(b1-4)GlcNAc
# Outline: as §1
# [7] = target: Gal(b1-4)GlcNAc(b1-3)[GlcNAc(b1-6)]Gal(b1-4)GlcNAc
# Outline: as §1
# [8] = target: Gal(b1-4)GlcNAc(b1-6)Gal(b1-4)GlcNAc
# Outline: as §1
# [9] = target: Gal(b1-4)GlcNAc(b1-6)GalNAc
# Outline: as §1
# [10] = target: Gal(b1-4)GlcNAc(b1-6)[Gal(b1-3)]GalNAc
# Outline: as §1
# [11] = target: Gal(b1-4)GlcNAc(b1-6)[Gal(b1-4)GlcNAc(b1-3)]GalNAc
# Outline: as §1
# Gal(b1-4)GlcNAc6P = target: Gal(b1-4)GlcNAc6P
# Outline: as §1
# Gal(b1-6)Gal = target: Gal(b1-6)Gal
# Outline: as §1
# Gal3S(b1-3)GalNAc = target: Gal3S(b1-3)GalNAc
# Outline: as §1
# Gal3S(b1-3)GlcNAc = target: Gal3S(b1-3)GlcNAc
# Outline: as §1
# [12] = target: Gal3S(b1-3)[Fuc(a1-4)]GlcNAc
# Outline: as §1
# Gal3S(b1-4)Glc = target: Gal3S(b1-4)Glc
# Outline: as §1
# Gal3S(b1-4)Glc6S = target: Gal3S(b1-4)Glc6S
# Outline: as §1
# Gal3S(b1-4)GlcNAc = target: Gal3S(b1-4)GlcNAc
# Outline: as §1
# [13] = target: Gal3S(b1-4)[Fuc(a1-3)]Glc6S
# Outline: as §1
# [14] = target: Gal3S(b1-4)[Fuc(a1-3)]GlcNAc
# Outline: as §1
# [15] = target: Gal3S(b1-4)[Fuc(a1-3)]GlcNAc6S
# Outline: as §1
# Gal3S4S(b1-4)GlcNAc = target: Gal3S4S(b1-4)GlcNAc
# Outline: as §1
# Gal3S6S(b1-4)GlcNAc = target: Gal3S6S(b1-4)GlcNAc
# Outline: as §1
# Gal3S6S(b1-4)GlcNAc6S = target: Gal3S6S(b1-4)GlcNAc6S
# Outline: as §1
# Gal4S(b1-4)GlcNAc = target: Gal4S(b1-4)GlcNAc
# Outline: as §1
# Gal4S6S(b1-4)GlcNAc = target: Gal4S6S(b1-4)GlcNAc
# Outline: as §1
# Gal6P(b1-4)GlcNAc = target: Gal6P(b1-4)GlcNAc
# Outline: as §1
# Gal6S(b1-3)GlcNAc = target: Gal6S(b1-3)GlcNAc
# Outline: as §1
# Gal6S(b1-3)GlcNAc6S = target: Gal6S(b1-3)GlcNAc6S
# Outline: as §1
# Gal6S(b1-4)Glc = target: Gal6S(b1-4)Glc
# Outline: as §1
# Gal6S(b1-4)Glc6S = target: Gal6S(b1-4)Glc6S
# Outline: as §1
# Gal6S(b1-4)GlcNAc = target: Gal6S(b1-4)GlcNAc
# Outline: as §1
# Gal6S(b1-4)GlcNAc6S = target: Gal6S(b1-4)GlcNAc6S
# Outline: as §1
# GalNAc(a1-3)Gal = target: GalNAc(a1-3)Gal
# Outline: as §1
# GalNAc(a1-3)GalNAc = target: GalNAc(a1-3)GalNAc
# Outline: as §1
# [16] = target: GalNAc(a1-3)GalNAc(b1-3)Gal(a1-4)Gal(b1-4)Glc
# Outline: as §1
# [17] = target: GalNAc(a1-3)GalNAc(b1-3)Gal(a1-4)Gal(b1-4)GlcNAc
# Outline: as §1
# GalNAc(b1-3)Gal = target: GalNAc(b1-3)Gal
# Outline: as §1
# [18] = target: GalNAc(b1-3)Gal(a1-4)Gal(b1-4)GlcNAc
# Outline: as §1
# [19] = target: GalNAc(b1-3)Gal(a1-4)Gal(b1-4)GlcNAc(b1-3)Gal(b1-4)Glc
# Outline: as §1
# [20] = target: GalNAc(b1-3)Gal(a1-6)Gal(b1-4)Glc
# Outline: as §1
# GalNAc(b1-3)GalNAc = target: GalNAc(b1-3)GalNAc
# Outline: as §1
# GalNAc(b1-3)GlcNAc = target: GalNAc(b1-3)GlcNAc
# Outline: as §1
# GalNAc(b1-4)Gal(b1-4)Glc = target: GalNAc(b1-4)Gal(b1-4)Glc
# Outline: as §1
binder,measurement,setting,value
Banana lectin (Musa acuminata) (protein) MNGAIKVGAHGGNGGSAFDMGPAYRIISVKIFSGDVVDGVDVTFTYYGKTETRHYGGSGGTPHEIVLQEGEYLVGMAGEVANYHGAVVLGKLGFSTNKKAYGPFGNTGGTPFSLPIAAGKISGFFGRGGKFLDAIGVYLEPLEHHHHHH,glycan array binding signal (z-score),[1],-0.168
same,glycan array binding signal (z-score),[2],-0.088
same,glycan array binding signal (z-score),[3],-0.163
same,glycan array binding signal (z-score),[4],-0.17
same,glycan array binding signal (z-score),[5],-0.141
same,glycan array binding signal (z-score),[6],-0.154
same,glycan array binding signal (z-score),[7],-0.194
same,glycan array binding signal (z-score),[8],-0.191
same,glycan array binding signal (z-score),[9],-0.163
same,glycan array binding signal (z-score),[10],-0.17
same,glycan array binding signal (z-score),[11],-0.161
same,glycan array binding signal (z-score),Gal(b1-4)GlcNAc6P,-0.168
same,glycan array binding signal (z-score),Gal(b1-6)Gal,-0.191
same,glycan array binding signal (z-score),Gal3S(b1-3)GalNAc,-0.192
same,glycan array binding signal (z-score),Gal3S(b1-3)GlcNAc,-0.175
same,glycan array binding signal (z-score),[12],-0.171
same,glycan array binding signal (z-score),Gal3S(b1-4)Glc,-0.18
same,glycan array binding signal (z-score),Gal3S(b1-4)Glc6S,-0.151
same,glycan array binding signal (z-score),Gal3S(b1-4)GlcNAc,-0.191
same,glycan array binding signal (z-score),[13],-0.149
same,glycan array binding signal (z-score),[14],-0.158
same,glycan array binding signal (z-score),[15],-0.151
same,glycan array binding signal (z-score),Gal3S4S(b1-4)GlcNAc,-0.197
same,glycan array binding signal (z-score),Gal3S6S(b1-4)GlcNAc,-0.168
same,glycan array binding signal (z-score),Gal3S6S(b1-4)GlcNAc6S,-0.156
same,glycan array binding signal (z-score),Gal4S(b1-4)GlcNAc,-0.174
same,glycan array binding signal (z-score),Gal4S6S(b1-4)GlcNAc,-0.182
same,glycan array binding signal (z-score),Gal6P(b1-4)GlcNAc,-0.178
same,glycan array binding signal (z-score),Gal6S(b1-3)GlcNAc,-0.135
same,glycan array binding signal (z-score),Gal6S(b1-3)GlcNAc6S,-0.174
same,glycan array binding signal (z-score),Gal6S(b1-4)Glc,-0.156
same,glycan array binding signal (z-score),Gal6S(b1-4)Glc6S,-0.172
same,glycan array binding signal (z-score),Gal6S(b1-4)GlcNAc,-0.124
same,glycan array binding signal (z-score),Gal6S(b1-4)GlcNAc6S,-0.186
same,glycan array binding signal (z-score),GalNAc(a1-3)Gal,-0.158
same,glycan array binding signal (z-score),GalNAc(a1-3)GalNAc,-0.154
same,glycan array binding signal (z-score),[16],-0.124
same,glycan array binding signal (z-score),[17],-0.194
same,glycan array binding signal (z-score),GalNAc(b1-3)Gal,-0.168
same,glycan array binding signal (z-score),[18],-0.167
same,glycan array binding signal (z-score),[19],-0.151
same,glycan array binding signal (z-score),[20],-0.153
same,glycan array binding signal (z-score),GalNAc(b1-3)GalNAc,-0.156
same,glycan array binding signal (z-score),GalNAc(b1-3)GlcNAc,-0.151
same,glycan array binding signal (z-score),GalNAc(b1-4)Gal(b1-4)Glc,-0.133
